# Reference: PubChem BioAssay AID2147 (National Center for Advancing Translational Sciences (NCATS), 2009)
# “And” between values parts separate entries of the source, which are not always exact repeats. Equal values may be shown once. The whole screen tested about 230,000 compounds, of which about 3,600 (1.6%) were called active. The shares of active, inactive and inconclusive entries below differ from those in the screen. Calls follow the shape of the dose curve; as a rule, active = well fitted inhibition curve with a large enough effect (not every such curve was filed as active); inconclusive = small, poorly fitted or top-dose-only effect, or another doubt; inactive = no such curve, though single readings can be large or run the other way. Potencies of inconclusive entries are doubtful fits and often do not repeat.
# Molecular target: Lysine-specific demethylase 4E (Homo sapiens) (UniProt B2RXH2)
# Assay: qHTS Assay for Inhibitors of Human Jumonji Domain Containing 2E (JMJD2E)
# Details: JMJD2E catalytic domain, FDH-coupled NADH fluorescence (FDH is formaldehyde dehydrogenase); series mostly up to 57.1 µM; activity change, negative = inhibition: at the top concentration
# Also: nearly all actives have a fitted effect of over 50% in size.
# 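For activity change, negative = inhibition in this document: 0% = wells with enzyme and -100% = buffer wells without enzyme.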
# Potency is read from the fitted curve at half-maximal effect; tags tell the direction and shape of the fitted curve.
# Chain of UniProt B2RXH2 (B2RXH2 whole entry, looked up, the tested form may be a part): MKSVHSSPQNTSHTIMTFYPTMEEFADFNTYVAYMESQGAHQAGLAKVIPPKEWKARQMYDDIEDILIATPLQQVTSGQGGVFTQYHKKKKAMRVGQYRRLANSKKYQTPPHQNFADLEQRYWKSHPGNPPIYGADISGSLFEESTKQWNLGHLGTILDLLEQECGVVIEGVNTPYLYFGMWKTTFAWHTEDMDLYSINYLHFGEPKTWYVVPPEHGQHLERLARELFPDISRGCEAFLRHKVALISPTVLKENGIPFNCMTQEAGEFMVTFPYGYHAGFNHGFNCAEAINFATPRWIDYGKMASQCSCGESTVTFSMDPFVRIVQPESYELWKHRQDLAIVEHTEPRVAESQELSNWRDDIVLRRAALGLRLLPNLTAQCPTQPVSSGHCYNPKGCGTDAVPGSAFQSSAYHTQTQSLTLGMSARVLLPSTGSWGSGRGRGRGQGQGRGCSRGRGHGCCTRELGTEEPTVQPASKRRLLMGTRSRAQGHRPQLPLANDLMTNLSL
SMILES,"activity change, negative = inhibition",Potency
CCOC(=O)C1=C(C)NC(=O)NC1c1ccc(-c2ccc(Cl)cc2)o1 (stereo unspecified),inactive: -11.2%,
Cc1ccnc(NC(=O)c2cc([N+](=O)[O-])cc([N+](=O)[O-])c2)c1,inactive: -11.7%,
COc1ccc(N=Nc2n(C)c3ccccc3[n+]2C)cc1,,"inconclusive: 25.1 µM [inhibitor, single point]"
c1csc(C2=NNC(=NC3CCCCC3)SC2)c1,inactive: -6.63%,
CCCCCS(=O)(=O)CCCCCCCCCCn1c(-c2ccc(O)cc2)c(C)c2cc(O)ccc21,,"inconclusive: 28.2 µM [inhibitor, partial curve]"
COc1cccc(-c2cc3nc4c(c(N5CCC6(CC5)OCCO6)n3n2)CCCC4)c1,,"inconclusive: 28.2 µM [inhibitor, single point]"
COc1cc(NC(=O)c2cc3ccccc3o2)c(OC)cc1Cl,,"inconclusive: 22.4 µM [inhibitor, partial curve]"
CCCN1C(=O)c2cc(C(=O)NC3CCCCCC3)ccc2C1O (stereo unspecified),inactive: 1.34%,
CC(C)(C)C1CCc2c(sc3nc(SCC(N)=O)nc(N)c23)C1 (stereo unspecified),,"inconclusive: 28.2 µM [inhibitor, single point]"
Nc1ccc2c(c1)C(=O)N(CCCCCC(=O)O)C2,,"inconclusive: 31.6 µM [inhibitor, partial curve]"
CCCCOc1ccccc1C1NC(=O)NC(C)=C1C(=O)OCc1ccco1 (stereo unspecified),inactive: -8.4%,
CCCc1nc2ccccc2c(=O)n1NC(=O)c1c(O)c2ccccc2[nH]c1=O,,"inconclusive: 7.08 µM [inhibitor, single point]"
c1ccc(NCCCNc2ccccc2)cc1,inactive: 2.42%,
CN(C(=O)COC(=O)c1ccc(-c2ccc(O)cc2)cc1)C1CCS(=O)(=O)C1 (stereo unspecified),,"inconclusive: 15.8 µM [inhibitor, partial curve]"
CSc1nc(N)c(C#N)c(-c2ccc(Cl)cc2)c1C#N,,"inconclusive: 35.5 µM [inhibitor, single point]"
CCN(CC)S(=O)(=O)c1cccc(NN=c2c(=O)c3ccccc3c2=O)c1,,"inconclusive: 39.8 µM [inhibitor, single point]"
CC1(C)Cc2ccccc2-c2n[nH]c(=S)n21,inactive: -4.98%,
Fc1cccc(NC(=S)Nc2cccnc2)c1,,"inconclusive: 28.2 µM [inhibitor, single point]"
Cc1ccc(C2C3=C(CCCC3=O)Nc3nc(SCC(=O)NCc4ccco4)[nH]c(=O)c32)cc1 (stereo unspecified),,"inconclusive: 28.2 µM [inhibitor, partial curve]"
CCN(CC)C(=O)C1CCCN(C(=S)Nc2cccc3ccccc23)C1 (stereo unspecified),,"inconclusive: 3.55 µM [inhibitor, full curve]"
CN(C)CCNC(C(=O)Nc1cc(Cl)cc(Cl)c1)c1ccccc1 (stereo unspecified),inactive: -3.1%,
N#Cc1cccc(NC(=O)CN2NS(=O)(=O)c3ccccc3C2=O)c1,inactive: 5.37%,
O=C(COc1cnc2ccccc2n1)NCCC1=CCCCC1,inactive: 41.5%,
O=C(CSc1n[nH]c(=O)[nH]c1=O)c1ccccc1,inactive: 2.25%,

SMILES,"activity change, negative = inhibition",Potency
Cc1ccccc1CS(=O)(=O)CCC(=O)N1CCN(c2ccc(N3CCOCC3)nn2)CC1,,"inconclusive: 25.1 µM [inhibitor, partial curve]"
COc1ccccc1NC(C#N)c1ccccc1OCc1ccccc1 (stereo unspecified),,"inconclusive: 39.8 µM [inhibitor, single point]"
COc1ccc(CN=Cc2c(C(=O)O)[nH]c3ccccc23)cc1,,"inconclusive: 39.8 µM [inhibitor, single point]"
Cc1cc2n(n1)C(c1ccc3c(c1)OCO3)Nc1ccccc1-2 (stereo unspecified),,"inconclusive: 31.6 µM [inhibitor, partial curve]"
COc1ccc(-c2occ(C(=O)O)c2C(=O)O)cc1,,"inconclusive: 35.5 µM [inhibitor, partial curve]"
O=S(=O)(c1ccccc1)N1CCN(Cc2ccccc2C(F)(F)F)CC1,,"inconclusive: 25.1 µM [inhibitor, single point]"
C(=C/c1nccc2c1[nH]c1ccccc12)/c1ccc2c(c1)OCO2,,"inconclusive: 0.708 µM [inhibitor, full curve]"
CC(=O)Nc1c(C(=O)O)oc2ccc(Cl)cc12,,"inconclusive: 35.5 µM [inhibitor, single point]"
O=C(CSc1nc2ccccc2c(=O)[nH]1)N1CCN(S(=O)(=O)c2ccccc2)CC1,inactive: 3.52%,
COC(=O)Cc1nnc(NC(=O)C(C)C)s1,inactive: -4.56%,
Cc1ccc(Nc2nc(N)c([N+](=O)[O-])c(NCc3ccco3)n2)cc1,,"inconclusive: 31.6 µM [inhibitor, single point]"
CCCc1cc2c(n1Cc1cc(F)cc(F)c1)C(C)C1CN(C(=O)c3ccccc3)C(C)(C(=O)OC)C21 (stereo unspecified),,"inconclusive: 35.5 µM [inhibitor, single point]"
CC1(C)CC=C(NNC(=O)c2cccnc2)C(=O)C1,,"inconclusive: 17.8 µM [inhibitor, single point]"
COc1ccc(CC(=O)Nc2cc(C)ccc2O)cc1OC,inactive: 10.3%,
Nc1nc2ccccc2n1C(=O)c1cccs1,,"inconclusive: 35.5 µM [inhibitor, single point]"
COc1ccccc1C1C(C(=O)c2cc3ccccc3o2)=C(O)C(=O)N1CCN(C)C (stereo unspecified),,"inconclusive: 39.8 µM [inhibitor, single point]"
COc1ccccc1/C=C/C=N/n1c(-c2n[nH]c3c2CCC3)n[nH]c1=S,,"inconclusive: 39.8 µM [inhibitor, single point]"
CCCCCOc1ccc(/C=c2\sc3ncnn3c2=O)cc1,,"inconclusive: 22.4 µM [inhibitor, single point]"
O=c1oc(Nc2ccc(F)cc2)nc2ccccc12,,"inconclusive: 39.8 µM [inhibitor, single point]"
CC(C)c1ccc(/C=N/N2CCCCC2)cc1,,"inconclusive: 28.2 µM [inhibitor, single point]"
CCc1c(C)nc2c(C#N)c[nH]n2c1=O,,"inconclusive: 25.1 µM [inhibitor, partial curve]"
CC1CCc2c(sc(NC(=S)NC(=O)c3ccccc3)c2C#N)C1 (stereo unspecified),inactive: -26.6%,
Cc1cc(C)n(-c2ccc(C(=O)C(C#N)c3nc4ccccc4n3C)cc2)n1 (stereo unspecified),,"inconclusive: 35.5 µM [inhibitor, single point]"
Cc1ccc(-n2nnc(-c3nccn3C)n2)cc1,,"inconclusive: 35.5 µM [inhibitor, single point]"

SMILES,"activity change, negative = inhibition",Potency
CCCCNC(=O)CN1C(=O)c2cccc(N)c2C1=O,,"inconclusive: 28.2 µM [inhibitor, partial curve]"
Cc1cc2nc(C)c(=O)n(C)c2cc1C,,"inconclusive: 31.6 µM [inhibitor, partial curve]"
CCOC(=O)c1cn(Cc2ccccc2)c2cc(C)nn2c1=O,,"inconclusive: 35.5 µM [inhibitor, partial curve]"
CCOC(=O)c1sc(-c2ccc(F)cc2)cc1NC(=O)Nc1ccccc1OC,,"inconclusive: 31.6 µM [inhibitor, single point]"
CC(=O)c1c(C)[nH]c(C(=O)N(C)C(c2ccccc2)c2ccccc2)c1C,inactive: -22.3%,
Cc1ccc(-c2ccccc2)n1-c1cccc(C(=O)O)c1,,"inconclusive: 28.2 µM [inhibitor, single point]"
O=c1[nH]cnc2c1sc1nc(-c3ccccc3)c3c(c12)CCCC3,,"inconclusive: 35.5 µM [inhibitor, single point]"
Cc1ccc(C(=O)CSC2=C(C#N)C(c3ccco3)CC(=O)N2)c(C)c1 (stereo unspecified),inactive: -2.23%,
CC1(C)Cc2c(C#N)c(NCCN3CCOCC3)nc(-c3ccco3)c2CO1,,"inconclusive: 28.2 µM [inhibitor, partial curve]"
O=c1oc2cc(Oc3c([N+](=O)[O-])cc(C(F)(F)F)cc3[N+](=O)[O-])ccc2c2c1CCCC2,,"inconclusive: 31.6 µM [inhibitor, partial curve]"
CC1CCCC(C)N1NC(=O)c1ccc(Cl)c(S(N)(=O)=O)c1 (stereo unspecified),,"inactive and inconclusive: 28.2 µM [inhibitor, single point]"
Fc1ccc(-c2csc(-c3ccncc3)n2)cc1,,"inconclusive: 3.55 µM [inhibitor, single point]"
CC1N(O)C(c2ccc(Cl)cc2Cl)N(O)C1(C)C (stereo unspecified),,"inconclusive: 6.31 µM [inhibitor, single point]"
CCc1ccc(C(=O)CSc2nc3cc(S(=O)(=O)N4CCOCC4)ccc3n2CC)cc1,inactive: 3.56%,
CC1CCN(CCCNC(=O)c2cc3c(=O)n(C)c4ccccc4c3n2C)CC1,,"inconclusive: 31.6 µM [inhibitor, partial curve]"
Oc1ccccc1/C=N/Nc1nccnc1Cl,,active: 25.1 µM
OCCN(CCO)c1nc(-c2ccccc2)nc2c1oc1ccccc12,,"inconclusive: 39.8 µM [inhibitor, single point]"
COc1cccc(Nc2nc(-c3sc(NC(=O)c4ccccc4)nc3C)cs2)c1,,"inconclusive: 39.8 µM [inhibitor, single point]"
COC(=O)c1c(-c2ccc(F)cc2)csc1NC(=O)C1CCCO1 (stereo unspecified),inactive: 2.47%,
Cc1nn(-c2ccccc2)c2nc(-c3cccs3)cc(C(=O)NN)c12,,"inconclusive: 11.2 µM [inhibitor, partial curve]"
CCOC(=O)C1CCN(C(c2cc3ccc(C)cc3[nH]c2=O)c2nnnn2C2CCCCC2)CC1 (stereo unspecified),,"inconclusive: 35.5 µM [inhibitor, single point]"
O=C(Nc1nnc(-c2ccncc2)o1)C1CCCCC1,,"inconclusive: 39.8 µM [inhibitor, single point]"
O=C1c2ccccc2NC2(CCCC2)N1O,,"inconclusive: 25.1 µM [inhibitor, single point]"
